Source: patent publication US20040063910A1 (CHIRON, published 2004)

Biological target: basic FGF (bFGF) (UniProt P09038 part only, limits assumed, 125I label on the tracer form)
Assay: cell-based or functional assay

UniProt P09038, sequence (P09038 143-288 limits assumed): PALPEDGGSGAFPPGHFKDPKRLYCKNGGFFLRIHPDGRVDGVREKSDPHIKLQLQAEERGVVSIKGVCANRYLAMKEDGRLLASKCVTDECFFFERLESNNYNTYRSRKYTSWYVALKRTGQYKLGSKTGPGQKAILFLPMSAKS

inhibition of HUVEC proliferation in the presence of serum and bFGF, potency against FGFR monomer: 10 fold
B1: FGFR-Ig Fc fusion protein dimer according to Construct #1 (Fc fusion)
chain: RPSPTLPEQAQPWGAPVEVESFLVHPGDLLQLRCRLRDDVQSINWLRDGVQLAESNRTRITGEEVEVQDSVPADSGLYACVTSSPSGSDTTYFSVNVSDALPSSEDDDDDDDSSSEEKETDNTKPNPVAPYWTSPEKMEKKLHAVPAAKTVKFKCPSSGTPNPTLRWLKNGKEFKPDHRIGGYKVRYATWSIIMDSVVPSDKGNYTCIVENEYGSINHTYQLDVVERSPHRPILQAGLPANKTVALGSNVEFMCKVYSDPQPHIQWLKHIEVNGSKIGPDNLPYVQILKTAGVNTTDKEMEVLHLRNVSFEDAGEYTCLAGNSIGLSHHSAWLTVLEALEERPAVMTSPLYLESRGGLVPRGSGSPGLQ[human IgG1 Fc not listed]
notes: Dimer through the IgG1 hinge; also called FGFR ECD Ig; FGFR-Ig Fc fusion dimer
